According to the supplement of paper PMC11417369:
± gives the standard deviation of the averaged measurements. Some of the results follow.

system: PfAP2-LT AP2 domain (GST-tagged); assay: gcPBM binding intensity (ln(normalized median fluorescence intensity)); higher = stronger DNA binding
Outline: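 GST-tagged P. falciparum DNA-binding domains produced in E. coli were incubated for 1 h on an Agilent 4 × 180k array of primer-extended double-stranded 36-bp intergenic genomic probes with negative controls. Binding intensity is the highest Masliner-normalised natural-log median intensity across replicate spots of either probe orientation, with bound protein detected by Alexa488 anti-GST antibody at 488 nm.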

Row | Sequence | gcPBM binding intensity (ln)
1 | TATTCTATATAATAATGTACGTGATTTAAATTTTCA [XGTACX_site6650] | 8.59 ± 0.43
2 | AAATAAAATAAAAACATGCACACTTTATTTTTTTTA [CACACA_site2800] | 8.63 ± 0.45
3 | AGAAGTTTAAAAAGCACACAAAAAAAAAAAAAAAGA [CACACA_site3309] | 8.67 ± 0.49
4 | AAAAATACCTGAATATGTACATATGATCAATGGGCC [XGTACX_site887] | 9.21 ± 0.38
5 | ATTCATATATATTATACACACACATATATAAATATA [CACACA_site8228] | 9.18 ± 0.18
6 | AAAATCGTGTTCTGAATACACACTAATACAAAGTTG [CACACA_site3985] | 8.79 ± 0.35
7 | TAAAAATATAAATTTTGTACGTAAAAAATGGTTCTT [XGTACX_site1506] | 8.66 ± 0.41
8 | AATTATACTTCCTTCACACAGTTACATCATATATTA [CACACA_site5942] | 8.94 ± 0.35
9 | TAAAAAATAAGATATACACACATATATATATATATA [CACACA_site2324] | 9.87 ± 0.32
10 | ATTCACATACATTACTTACACACCATATTAATATAT [CACACA_site459] | 9.21 ± 0.41
11 | TAACATATTAATAACATATTTATAATATATTAATAA [TGCATGCA_negctrl_site243] | 8.34 ± 0.43
12 | AAAAAAAAAAAAAAGGAACACACAAGTAACAATAAA [CACACA_site8792] | 9.04 ± 0.64
13 | GTAAGAAAGAAAGGAAGTACGTAAGAAAGTAAGAAC [XGTACX_site1239] | 9.63 ± 0.59
14 | TATATATATTATATAGTGCATTGAAGAAGGGGATTT | 8.71 ± 0.38
15 | GTGTGGTTACAGACACGAACACATTTTTTAAATATT [CACACA_negctrl_site83] | 8.93 ± 0.47
16 | TTTTTTTTTCTGTGAGTGCATGTAATAAAATAAATT [GTGCAC_site9740] | 8.26 ± 0.4
17 | ATATATTTATAATACACATGCAATGATATAATATAT [TGCATGCA_site20] | 8.78 ± 0.31
18 | CATATATACATATATACACACATATATATATATATA [CACACA_site645] | 9.63 ± 0.34
19 | TATTCCTTATTATAATTCTTAAATAAAAAAAAAAAA [TGCATGCA_negctrl_site45] | 7.83 ± 0.27

Row | Sequence | gcPBM binding intensity (ln)
20 | ATATATAAACTGAAGGGTACAATGAAAAAAGAACTT [XGTACX_site7219] | 8.98 ± 0.49
21 | TAGGATTTTTAGTTTATTGTAACTATTATTTTATTT [CACACA_negctrl_site829] | 8.74 ± 0.59
22 | CCCATTATTGTTGGGGGTACAATTTTGAATATATAT [XGTACX_site2227] | 8.95 ± 0.042
23 | CATATTTGTTGACACACACACATATTTATATAAATA [CACACA_site7648] | 9.41 ± 0.38
24 | TTTATATGTTTAAAATGTACATGTGGTAAAAATTTT [XGTACX_site5907] | 8.45 ± 0.42
25 | GGGAGGATATTACACAGTACCCAGAAAATCTACGGA [XGTACX_site2551] | 8.74 ± 0.54
26 | TTATAATCTTATATATGTACATATATATATTATTAT [XGTACX_site7780] | 8.85 ± 0.42
27 | AAACATGTATTTTATTGTACACATTCATAAATCACA [XGTACX_site1420] | 8.74 ± 0.38
28 | TACATGTATGTAATATGTTTTATTTTTTTCATCTCT [XGTACX_negctrl_site79] | 8.56 ± 0.49
29 | AAATATATGAATAAATGTACGAAATGAATGGATGAA [XGTACX_site7108] | 8.96 ± 0.42
30 | CATTCAAACAAAAAAAGTACTCATCACATAATATAT [XGTACX_site1251] | 8.84 ± 0.46
31 | AAAAAAAAAAAAAAACTTACGATTTTAAAAAGATGG [GTGCAC_negctrl_site291] | 8.34 ± 0.47
32 | GAAATGTACAAATACGTACACACATATATATATATA [CACACA_site1541] | 9.87 ± 0.14
33 | GCAAAATATTTAAAATAATATATGTGTATATTTTTA [GTGCAC_negctrl_site149] | 8.41 ± 0.39
34 | TTTATATTGTTTTATTGTACATATATATTTATACAT [XGTACX_site6821] | 9.03 ± 0.43
35 | TTAATTAGAAATCATACACACATATATATATATATA [CACACA_site173] | 9.59 ± 0.19
36 | AAAAAAAAAAAAAACACACAAACGCTTTTTTTTTTT [CACACA_site686] | 8.9 ± 0.38
37 | TACACATACACATACACACGCATAGAAACATACGAA [CACACA_site2137] | 9.48 ± 0.33
38 | TATGAAAATGTTCATACACACATAAAAAAAAAAAAA [CACACA_site3236] | 8.84 ± 0.47

Row | Sequence | gcPBM binding intensity (ln)
39 | ATTTTAAATGTTATGCGTACATATTAATCCTACTTA [XGTACX_site1344] | 8.8 ± 0.4
40 | TGTTTGAATAACAAAAAAAAAAAAAAAATTAAAAAA [CACACA_negctrl_site1332] | 8.22 ± 0.56
41 | TTTTAAAAATCTATATGTACACAATACGTCTATAAA [XGTACX_site5787] | 8.52 ± 0.41
42 | TACATATTTTTATATACACACAATAATTATTATAAA [CACACA_site1659] | 8.54 ± 0.43
43 | TTTTAAATATGCAGATGTACATTATAATGTTTTATT [XGTACX_site2079] | 8.87 ± 0.47
44 | GATATGTACTAATACACACACATATAGATTTATATA [CACACA_site6610] | 9.35 ± 0.43
45 | TATATTTATTATAACACACACATATATATATTATAT [CACACA_site1061] | 9.1 ± 0.33
46 | AAAATAAAAAATATAACACACAATAAATATATATAT [CACACA_site1926] | 9.11 ± 0.53
47 | ATAATCATTTGGATATTCACAATATTTAAAATTAAA [CACACA_negctrl_site909] | 8.21 ± 0.46
48 | GAAAAAAAAAAAAAAAAAAAAAAATTCATTTTTTTT [XGTACX_negctrl_site54] | 8.12 ± 0.54
49 | TTTTAACTTTTATATTGTACGTTGTTTATTTTATTT [XGTACX_site7504] | 8.99 ± 0.55
50 | ATTTCCTGGCTACTGTGTACTGACCTCCAGACTGCT [XGTACX_site2005] | 9.13 ± 0.59
51 | TATACAAAATAACTAGCACACATATGTATAAACATA [CACACA_site9236] | 9.13 ± 0.38
52 | ATAAATAAAATTAGGTGTACTTTAATTAAAGAAAAT [XGTACX_site3319] | 8.62 ± 0.42
53 | CATAAAAATATTTTCTGTACATATTCATATGACGTT [XGTACX_site3406] | 8.88 ± 0.49
54 | TATACATATATAATATGTACATATATTTTTTTTTAA [XGTACX_site2938] | 8.45 ± 0.34
55 | ATAAATATTGGGTGCACACACATAATATATATATAT [CACACA_site2272] | 9.59 ± 0.35
56 | AGGTTCCCAAAATGCACACCAATGAAATTATTTATT [CACACA_site553] | 8.82 ± 0.42
